Measurements reported in PubChem BioAssay AID1345082 (National Center for Advancing Translational Sciences (NCATS), 2018).
In all, about 94,000 compounds went through this assay and about 4,000 (4.3%) were called active. The inconclusive results got no clear call from the source; some entries with a clear call stand among them for comparison. Calls come from the whole dose curve; as a rule, active = well fitted inhibition curve with a large enough effect; inconclusive = small, poorly fitted or top-dose-only effect; inactive = no such curve, though single readings can be large or run the other way. Where the call is inconclusive, the potency comes from a doubtful curve fit.
% is set by controls: 0 for no effect and ±100 for the full control effect; potency is the fitted concentration of half-maximal effect; tags give direction and shape of the fitted curve.

Assay: Cytotoxic Profiling in NIH 3T3 Cell Line of Diverse Libraries Using Quantitative High-Throughput Screening; note: nearly all actives have a fitted effect of over 55% in size
Settings: NIH 3T3 viability, CellTiter-Glo ATP luminescence, 48-72 h; activity change, negative = cytotoxicity: at 96.7 µM (top of the series); series mostly up to 96.7 µM
In short: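 ATP-dependent luminescence (CellTiter-Glo) served as the viability signal for NIH 3T3 cells treated with compound for 48 or 72 hr at 37 °C.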
With `COc1ccccc1CNC(=O)C1CCN(c2cc(C(F)(F)F)nc(C)n2)CC1` the Potency was inconclusive: 11.2 µM [inhibitor, partial curve, poor fit].
For `COc1ccc(-c2nnc3n2CCN([S+](=O)([O-])c2ccc(C)cc2)C3)cc1`, the “activity change, negative = cytotoxicity” value was inactive: -21.7%.
For `O=C(c1cc(C2CC2)[nH]n1)N1CCC2(CC1)NC(=O)N(c1cccc(F)c1)N2`, the Potency was inconclusive: 28.2 µM [inhibitor, full curve, poor fit].
In the case of `Cc1ccccc1COC1CN(C(=O)C2CC(=O)N(C(C)(C)C)C2)C1` (stereo not given), the “activity change, negative = cytotoxicity” value is reported as inactive: -10.6%.
For `CC(C)(C)c1ccc(C(=O)N2CCCC3(C2)NC(=O)N(Cc2ccccc2)C3=O)cc1` (stereo not given), the Potency was inconclusive: 50.1 µM [inhibitor, partial curve, poor fit].
For `COc1ccc(-c2n[nH]c3c2CC(=O)N(c2ccccc2)C3)cn1`, the Potency was inconclusive: 10 µM [inhibitor, full curve, poor fit].
In the case of `Cc1cnc(C)n1CC1CCN(S(=O)(=O)c2cccc(F)c2)CC1`, the “activity change, negative = cytotoxicity” value is reported as inactive: -8.48%.
For `O=C(NC1CCN(c2cn[nH]c(=O)c2)CC1)C1CCCCC1`, the “activity change, negative = cytotoxicity” value was inactive: -8.73%.
With `OC(c1cc2n(n1)CCN(c1ncc(C(F)(F)F)cc1Cl)C2)C1CC1` (stereo not given) the Potency was inconclusive: 44.7 µM [inhibitor, partial curve, poor fit].
With `Cc1nc(CN2C[C@H](C(=O)Nc3ccc(F)cc3)C[C@@H]2c2ccc(F)cc2)cs1` the Potency was active: 100 µM.
In the case of `CC#CCn1cc2c3c(cccc31)[C@H](CC(C)C)N[C@H](C(=O)NC(C)C)C2`, the Potency is reported as active: 70.8 µM.
With `Cc1nn(Cc2ccccc2)c(C)c1[C@@H]1C=C[C@@H](NC(=O)c2ccco2)C1` the Potency was inconclusive: 70.8 µM [inhibitor, full curve, poor fit].
In the case of `O=C(C1CCCN1[S+](=O)([O-])c1cccs1)N1CCC(N2CCCC2=O)CC1` (stereo not given), the “activity change, negative = cytotoxicity” value is reported as inactive: -13.2%.
In the case of `O=C(c1ccco1)N1CCCN(c2cc(-c3ccc(Br)cc3)[nH]n2)CC1`, the Potency is reported as inconclusive: 44.7 µM [inhibitor, partial curve, poor fit].
For `COc1ccc(NC(=O)N2Cc3[nH]cnc3C[C@H]2c2nc(-c3ccc(Cl)cc3)no2)cc1`, the Potency was inconclusive: 56.2 µM [inhibitor, partial curve, poor fit].
With `COc1ccc(CC(=O)N(C)Cc2ccc(F)cc2)cc1` the “activity change, negative = cytotoxicity” value was inactive: -24.7% [at 138 µM].
With `COc1ccc(-c2nc3c(c(=O)[nH]2)CCN(C(=O)c2nccc4ccccc24)C3)cc1` the Potency was inconclusive: 70.8 µM [inhibitor, partial curve, poor fit].
With `C[C@H]1[C@@H]2[C@@H](O)C([C@H](C)C(=O)NC3CCCCC3)CC[C@@]2(C)CC[C@@H]1NC(=O)C1CCCCC1` (stereo not given in full) the “activity change, negative = cytotoxicity” value was inactive: -26.4%.
In the case of `CN(C)c1ccc(C(=O)NC[C@H]2O[C@@H](CO)[C@@H](O)[C@H]2N2CCN(c3ccccc3)CC2)cc1`, the “activity change, negative = cytotoxicity” value is reported as inactive: 1.32%.
With `COc1ccc(CCn2nc3n(c2=O)CCN(Cc2ccccc2C)C3=O)cc1` the Potency was inconclusive: 70.8 µM [inhibitor, single point].
In the case of `Cn1c2c(c3ccccc31)CN(C(=O)NC1CCCCC1)CC2`, the Potency is reported as active: 31.6 µM.
With `C[C@@H]1CN(C(=O)c2ccco2)C[C@H]1c1nc(-c2ccccc2)no1` the Potency was inconclusive: 44.7 µM [inhibitor, partial curve, poor fit].
In the case of `COc1ccccc1-c1ccc2c(C(=O)N(C)C)nn(C)c2n1`, the “activity change, negative = cytotoxicity” value is reported as inactive: 1.13% [at 138 µM].
For `CC1(COCC2CC2)COc2ccc(C(=O)NCc3cccnc3)cc2N1` (stereo not given), the Potency was inconclusive: 112 µM [inhibitor, single point].
In the case of `O=C(c1ccc(F)cc1)N1CCC(C(=O)N2CCC(c3nc4ccncc4[nH]3)C2)CC1` (stereo not given), the “outcome” value is reported as “inactive”.
For `CN(Cc1cncs1)C1CCc2ccccc21` (stereo not given), the Potency was inconclusive: 100 µM [inhibitor, single point].
For `COC(=O)CNC(=O)C1CCCN1C(=O)c1cccc(-c2cccc(OC)c2)c1` (stereo not given), the Potency was inconclusive: 70.8 µM [inhibitor, partial curve, poor fit].
For `Cn1ncc2c(C(=O)NC3CCOCC3)cc(-c3ccc(F)cc3)nc21`, the Potency was inconclusive: 70.8 µM [inhibitor, single point].
With `COc1ccc(CNC(=O)C2CCCCN2Cc2ccc(-c3ccccc3OC)cc2)cc1` (stereo not given) the Potency was inconclusive: 22.4 µM [inhibitor, full curve, poor fit].
In the case of `COc1cccc(CC(=O)N2CC(CNc3ccccc3)C3(C2)CN(c2ccccc2)C3)c1` (stereo not given), the Potency is reported as inconclusive: 31.6 µM [inhibitor, full curve].
With `Cc1oc(C(O)c2ccccc2F)nc1C(=O)Nc1ccc2[nH]ccc2c1` (stereo not given) the Potency was inconclusive: 89.1 µM [inhibitor, partial curve].
For `O=C(NCC(F)F)c1nc2cccnc2n(C2CCCC2)c1=O`, the Potency was inconclusive: 89.1 µM [inhibitor, partial curve, poor fit].
With `CCCCOc1c(CNC2(CO)CCCC2)cccc1OC` the “activity change, negative = cytotoxicity” value was inactive: -23.7%.
In the case of `Cc1ccc(C(=O)N(C)C2CCCc3ccccc32)cc1` (stereo not given), the Potency is reported as inconclusive: 89.1 µM [inhibitor, partial curve].
With `COc1ccc(CN(C)C2CCCN(CCc3ccccc3)C2)c(OC)c1OC` (stereo not given) the Potency was inconclusive: 50.1 µM [inhibitor, partial curve, poor fit].
In the case of `COC(=O)C1=CN(CC(=O)Nc2ccc(C)cc2Cl)S(=O)(=O)N=C1C`, the “activity change, negative = cytotoxicity” value is reported as inactive: -15%.
In the case of `O=C1NCCCCCCN(Cc2ccncc2)[C@@H]2CN(C(=O)c3cccs3)CC[C@@H]12`, the “activity change, negative = cytotoxicity” value is reported as inactive: -5.18%.
In the case of `COc1ccc(Cc2nc3nccc(-c4ccco4)n3n2)cc1`, the “activity change, negative = cytotoxicity” value is reported as inactive: -19.4%.
In the case of `CN(Cc1ccc(-c2ccccc2)cc1)Cc1cccn1C`, the Potency is reported as inconclusive: 89.1 µM [inhibitor, partial curve, poor fit].
For `COc1ccc(OCC2(C)COc3ccc(C(=O)Nc4ccccc4)cc3N2)cc1` (stereo not given), the Potency was inconclusive: 10 µM [inhibitor, full curve, poor fit].
For `OC1(Cn2ccnc2)CCN(c2nccc(-c3cccnc3)n2)CC1`, the Potency was inconclusive: 44.7 µM [inhibitor, partial curve].
With `C#CCNC(=O)c1cc(-c2ccccc2F)nc2c1cnn2C` the Potency was inconclusive: 31.6 µM [inhibitor, full curve].
For `COc1ccc(-c2cc(N3CCN(C(=O)c4ccccc4C)CC3)n[nH]2)cc1`, the Potency was inconclusive: 35.5 µM [inhibitor, partial curve, poor fit].
With `COc1ccc(C2Cn3nnc(C(=O)N4CCN(C(=O)c5c(F)cccc5F)CC4)c3CO2)cc1` (stereo not given) the Potency was inconclusive: 44.7 µM [inhibitor, partial curve, poor fit].
With `O=C1NC2(CCCN([S+](=O)([O-])c3ccccc3)C2)COc2ccccc21` (stereo not given) the Potency was active: 22.4 µM.
In the case of `COc1cccc(-c2cn3cc(C(=O)N4CCN(C(C)=O)CC4)nc3s2)c1`, the Potency is reported as inconclusive: 70.8 µM [inhibitor, single point].
In the case of `N#Cc1cccc(-c2c(C(=O)NCc3cccc(C(F)(F)F)c3)nc3sccn23)c1`, the Potency is reported as inconclusive: 31.6 µM [inhibitor, full curve, poor fit].
For `COc1ccc(OC)c(S(=O)(=O)NCCc2ncc(C)n2C(C)C)c1`, the “activity change, negative = cytotoxicity” value was inactive: -5.25%.
In the case of `Cc1cccc(OCC(=O)N2CCC(n3cc(-c4nc(C5CC5)no4)nn3)C2)c1` (stereo not given), the “activity change, negative = cytotoxicity” value is reported as inactive: -29.6%.
With `CC(C)Cc1cc(C(=O)N2CCOCC2CC(=O)N2CC=CC2)nc(=O)[nH]1` (stereo not given) the “activity change, negative = cytotoxicity” value was inactive: -4.14%.
With `Cc1cccc(-c2nc3ccc(C(=O)N4CCCCC4)cc3o2)n1` the Potency was active: 10 µM.
In the case of `COc1cc2c(cc1-c1ccccc1)OCC(C)(C)CC2CO` (stereo not given), the Potency is reported as inconclusive: 50.1 µM [inhibitor, partial curve, poor fit].
In the case of `CN(CC1CCOCC1)S(=O)(=O)c1ccccc1Br`, the “activity change, negative = cytotoxicity” value is reported as inactive: -12.5%.
In the case of `CN1C[C@@H](NC(=O)c2ccc3c(c2)OCO3)C[C@H]1c1nc(-c2ccc3ccccc3c2)no1`, the Potency is reported as inconclusive: 50.1 µM [inhibitor, partial curve, poor fit].
For `O=C(Cc1ccc(F)cc1)NC1CCN(c2cc(-c3ccccc3)[nH]n2)C1` (stereo not given), the Potency was inconclusive: 56.2 µM [inhibitor, partial curve, poor fit].
In the case of `O=C(NC1CCN(Cc2ccccc2)CC1)c1cc2c(s1)CN(C1CCCC1)C2`, the Potency is reported as inconclusive: 50.1 µM [inhibitor, partial curve, poor fit].
For `COc1cccc(S(=O)(=O)N2CCc3nnc(C4CC4)n3CC2)c1`, the Potency was inconclusive: 79.4 µM [inhibitor, partial curve, poor fit].
For `CCN(Cc1ccncc1)C(=O)c1cc(-c2cnn(CC)c2)nc2cc(C)ccc12`, the Potency was active: 2.82 µM.
With `C=CCOc1cccc(-c2nc(C(=O)N(C)CC)cs2)c1` the Potency was inconclusive: 50.1 µM [inhibitor, partial curve, poor fit].
For `Cc1nn(-c2ccccc2)c2c1C(C1CC1)N(CC1CN(C(=O)Cc3ccccc3)C1)C2=O` (stereo not given), the Potency was inconclusive: 44.7 µM [inhibitor, partial curve, poor fit].
For `CN1Cc2cccn2CC1CNC(=O)c1cccc(F)c1` (stereo not given), the Potency was inconclusive: 79.4 µM [inhibitor, partial curve, poor fit].
With `CC(C)c1noc(C2Cc3ccccc3N2C(=O)NC2CCCC2)n1` (stereo not given) the Potency was active: 31.6 µM.
With `NCC1CCCN(Cc2cccc(-c3nc(-c4cccnc4)cc(=O)[nH]3)c2)C1` (stereo not given) the Potency was inconclusive: 89.1 µM [inhibitor, single point].
With `O=C(c1ccc2[nH]ccc2c1)N1CCC(n2cc(-c3nc(-c4ccccc4)no3)nn2)C1` (stereo not given) the Potency was inconclusive: 44.7 µM [inhibitor, partial curve, poor fit].
With `COc1ccc(-c2cc(CC3(N(Cc4ccc(CO)o4)Cc4ccc(CO)o4)COC3)no2)cc1` the Potency was inconclusive: 50.1 µM [inhibitor, partial curve, poor fit].
